# Among all 280,000 compounds or so, about 100 (0.036%) were called active. Inconclusive results, whose numbers are uncertain, are shown with a selection of clear calls. The call rests on the fitted dose curve; in most records, active means well fitted inhibition curve with a large enough effect in the signal ratio, with a control signal flat (not every such curve was filed as active); inconclusive means small, poorly fitted or top-dose-only effect, or effect the other way, or a change in a side signal; inactive means no such curve, though single readings can be large or run the other way; the % refers to the signal ratio. A potency beside an inconclusive call is a rough fit, not a confirmed value. A note “side channel” means that the fit belongs to a control or component signal, not to the main read-out.
# Biological target: Muscleblind-like protein 1 (Homo sapiens) (UniProt Q9NR56)
# Test: qHTS Assay for Inhibitors of MBNL1-poly(CUG) RNA binding
# Conditions: TR-FRET MBNL1-His/biotin-(CUG)12 binding, 665/545 ratio; activity change, negative = inhibition: at 57.5 µM (top of the series)
# Method in brief: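 TR-FRET between His-tagged MBNL1 and biotin-(CUG)12 RNA, detected with Tb anti-His antibody (0.055 ng/ul) and streptavidin-XL665 (5 nM), 60 min at room temperature. Compounds titrated 92 nM to 58 uM; 665/545 nm ratio normalized to buffer and complex controls.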
# On the % scale 0 is the no-effect control and ±100 the full control effect; potency means the concentration at half of the fitted maximal effect; tags describe the fitted curve by direction and shape or compound fluorescence and quenching.
# Sequence of UniProt Q9NR56 (Q9NR56 whole entry, looked up): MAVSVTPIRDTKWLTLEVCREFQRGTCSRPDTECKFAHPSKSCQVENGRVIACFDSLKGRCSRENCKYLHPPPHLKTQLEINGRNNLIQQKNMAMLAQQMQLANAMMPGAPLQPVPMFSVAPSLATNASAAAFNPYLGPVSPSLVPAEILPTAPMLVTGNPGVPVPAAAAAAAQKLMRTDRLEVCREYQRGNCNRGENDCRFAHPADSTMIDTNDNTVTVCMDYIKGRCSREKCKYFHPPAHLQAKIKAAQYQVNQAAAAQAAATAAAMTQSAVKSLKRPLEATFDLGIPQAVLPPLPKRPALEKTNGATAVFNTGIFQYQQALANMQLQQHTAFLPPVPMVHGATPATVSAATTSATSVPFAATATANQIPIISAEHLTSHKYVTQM
SMILES,Potency,"activity change, negative = inhibition"
O=C(O)Cc1ccc(NC(=O)CCN2C(=O)c3ccc([N+](=O)[O-])cc3C2=O)cc1,"inconclusive: 8.91 µM [quencher, side channel, partial curve]",
COc1ccc2c(c1OC)C(=O)N1N=C(c3ccc(F)cc3)CC21 (configuration not stated),"inconclusive: 28.2 µM [quencher, side channel, single point]",
CCNCCNC(=O)c1c(O)c2cccc3c2n(c1=O)CCC3,inactive,
COc1ccc(CCNC(=O)CN2C(=O)NC(C)(c3ccc([N+](=O)[O-])cc3)C2=O)cc1 (configuration not stated),"inconclusive: 44.7 µM [quencher, side channel, partial curve, poor fit]",
COc1ccc(NCC(=O)N/N=C/C=C/c2ccccc2[N+](=O)[O-])cc1,"inconclusive: 8.91 µM [quencher, side channel, partial curve]",
Cn1nnnc1SCC(=O)N1CCc2ccccc21,inactive,
O=C(/C=C/c1ccc(S(=O)(=O)N2CCOCC2)cc1)N(CCO)Cc1ccccc1,"inconclusive: 31.6 µM [quencher, side channel, single point]",
CN(CCOCCOc1ccc(F)cc1)Cc1ccccc1,inactive,
COc1cc(C(=O)OCC(=O)Nc2cc(C)on2)c([N+](=O)[O-])cc1OC,"inconclusive: 17.8 µM [quencher, side channel, single point]",
COc1cccc(NC(=O)c2ccc3nsnc3c2)c1,"inconclusive: 11.2 µM [quencher, side channel, partial curve]",
Cc1ccc(-n2c(N)c(C#N)c(-c3ccc(Cl)cc3)c(C#N)c2=O)cc1,"inconclusive: 17.8 µM [fluorescent, side channel, single point]",
COCCn1c(N)c(C(=O)NCC2CCCO2)c2nc3ccccc3nc21 (configuration not stated),"inconclusive: 17.8 µM [quencher, side channel, partial curve]",
O=C(O)c1ccc2c(c1)S(=O)(=O)c1ccccc1C2=O,"inconclusive: 14.1 µM [quencher, side channel, partial curve]",
Cc1cc(C(=O)N/N=C/c2cccc([N+](=O)[O-])c2)c2ccccc2n1,"inconclusive: 17.8 µM [quencher, side channel, partial curve]",
Cn1cc([N+](=O)[O-])c(C(=O)Nc2ccc(Br)cn2)n1,"inconclusive: 15.8 µM [quencher, side channel, partial curve]",
O=C(c1ccccc1)N1CCN(c2nc3ccc([N+](=O)[O-])cc3s2)CC1,"inconclusive: 7.94 µM [quencher, side channel, partial curve]",
CCOc1ccc(C(=O)C[n+]2ccc(C(=O)NCCO)cc2)cc1,"inconclusive: 22.4 µM [quencher, side channel, partial curve]",
Cc1cccc(NC(=O)Nc2cccc(C#N)c2)n1,"inconclusive: 0.891 µM [quencher, side channel, single point]",
NC(=O)c1ccc(/C=N/O)[n+](Cc2ccccc2)c1,"inconclusive: 25.1 µM [quencher, side channel, partial curve]",
C/C(=N\NC(=O)C(N)=O)c1ccc(OC(F)F)cc1,inactive,
Cc1cc(C)n(-c2nc(SCCN(C)C)c3c4c(sc3n2)COC(C)(C)C4)n1,inactive,

SMILES,Potency,"activity change, negative = inhibition"
CCOC(=O)N1CCN(S(=O)(=O)c2ccc(C(=O)Nc3nnc(CSC)o3)cc2)CC1,"inconclusive: 39.8 µM [quencher, side channel, single point]",
O=C(CSc1ccccn1)Nc1nonc1[N+](=O)[O-],inactive,
COC(=O)CN(c1ccccc1F)S(=O)(=O)c1ccccc1,"inconclusive: 2.51 µM [quencher, side channel, partial curve]",
O=[N+]([O-])c1ccc2nc(-c3cccnc3)[nH]c2c1,"inconclusive: 12.6 µM [quencher, side channel, partial curve]",
CCn1c(-c2ccc([N+](=O)[O-])cc2)n[nH]c1=S,"inconclusive: 15.8 µM [quencher, side channel, partial curve]",
CC(C)(C)n1nnnc1C(c1ccc(F)cc1)N(Cc1ccc(F)cc1)Cc1ccco1 (configuration not stated),inactive,
CC(C)CN1C=C2C(=O)C(C)(OC(=O)CCc3ccccc3)C(=O)C=C2C=C1c1ccc(C#N)cc1 (configuration not stated),"inconclusive: 17.8 µM [quencher, side channel, partial curve]",
CCOC(=O)/C(=N\Nc1ccccc1[N+](=O)[O-])c1csc(N)n1,"inconclusive: 22.4 µM [quencher, side channel, partial curve]",
Cc1cccc(N2C(=O)c3cccc4cccc(c34)C2=O)c1,"inconclusive: 12.6 µM [quencher, side channel, partial curve]",
CC(C)c1ccc(C2C3=C(CC(C)(C)CC3=O)NC3=C2C(=O)c2ccccc23)cc1 (configuration not stated),"inconclusive: 17.8 µM [quencher, side channel, single point]",
Cc1ccc([N+](=O)[O-])cc1S(=O)(=O)NCC1COc2ccccc2O1 (configuration not stated),"inconclusive: 3.98 µM [quencher, side channel, full curve]",
O=[N+]([O-])c1ccc(NNS(=O)(=O)c2cc(Cl)ccc2Cl)nc1,"inconclusive: 15.8 µM [quencher, side channel, partial curve]",
CC(CC1CC(C)(C)OC1=O)C(=O)Nc1ccc([N+](=O)[O-])cc1 (configuration not stated),"inconclusive: 35.5 µM [quencher, side channel, partial curve]",
Cc1cccc(-n2c(N)c(C(=O)N3CCN(C)CC3)sc2=S)c1,"inconclusive: 20 µM [quencher, side channel, partial curve]",
CN(C)CCNC(=O)c1cc2ccccc2oc1=O,"inconclusive: 22.4 µM [quencher, single point]",
COc1ccc(/C=C2/SC(=S)NC2=O)cc1OCc1ccccc1,inactive,
Cc1cccc(NC(=O)c2snc3c(=O)[nH]cnc23)c1,"inconclusive: 20 µM [quencher, side channel, single point]",
Cc1ccc(/C=N/NC(=O)C(c2ccncc2)N2CCOCC2)cc1 (configuration not stated),inactive,
Cc1ccc(Cn2cccc2C2=NC(C)CO2)cc1 (configuration not stated),inactive,
CSc1cnn(-c2ccccc2)c(=O)c1SC,"inconclusive: 12.6 µM [quencher, side channel, partial curve]",
COc1ccccc1NC(=O)CSC(N)=O,inactive,

SMILES,Potency,"activity change, negative = inhibition"
Nc1nccnc1C(=O)N/N=C/c1ccco1,"inconclusive: 15.8 µM [quencher, side channel, partial curve]",
O=C(COC(=O)c1ccc2ccccc2n1)c1ccccc1,"inconclusive: 12.6 µM [quencher, side channel, partial curve]",
CCOc1ccc(NC(=O)Cc2cccc3ccccc23)c([N+](=O)[O-])c1,"inconclusive: 31.6 µM [quencher, side channel, single point]",
Cc1cc(C)c2c(=O)n(CC(=O)Nc3cccc(F)c3)sc2n1,inactive,
COc1ccc2c(c1OC)C(=O)N(c1ccc(OCc3ccccc3)cc1)C2=O,inactive,
Cc1cc(-c2ccccc2)nc(N/N=C/c2ccco2)n1,"inconclusive: 31.6 µM [quencher, side channel, single point]",
Cc1ccc(/C=C2\C(=N)N3N=C(CC(=O)N4CCOCC4)SC3=NC2=O)o1,"inconclusive: 15.8 µM [quencher, side channel, partial curve]",
c1cc(C2CCN(Cc3nc(-c4ccc5c(c4)OCO5)no3)CC2)ccn1,inactive,
Fc1ccccc1NC(=S)N1CCCCC1,,inconclusive: -6.53% [phenotype inactive]
Cc1ccc(-c2cc(C(=O)Nc3cccnc3)c3ccccc3n2)o1,"inconclusive: 8.91 µM [quencher, side channel, partial curve]",
Cc1cccc(-c2c3c(=O)n(C)c(=O)n(C)c3c3cccnn23)c1,"inconclusive: 6.31 µM [quencher, side channel, partial curve]",
COc1cc(/C=C2\C=CC(=O)O2)cc(OC)c1,"inconclusive: 25.1 µM [quencher, side channel, partial curve]",
Cc1cccn2c(=O)c(C=C(C#N)C#N)c(N3CCN(C)CC3)nc12,"inconclusive: 25.1 µM [quencher, side channel, partial curve]",
Cc1cc(C)nc(Sc2ccc(/C=C(\C#N)C(N)=O)o2)n1,"inconclusive: 28.2 µM [quencher, side channel, partial curve]",
OCCC1CN(Cc2ccc(-n3cccn3)cc2)CCN1Cc1ccccc1 (configuration not stated),"inconclusive: 39.8 µM [inhibitor, partial curve]",
O=C1c2cccc(O)c2C(=O)c2c(O)cccc21,"inconclusive: 2.51 µM [quencher, side channel, full curve]",
CCCN(CC1CC1)c1nc(N)c(C#N)c(CC#N)c1C#N,inactive,
O=C(CCNC(=O)c1ccccc1Cl)Nc1ccc(Cl)c(C(F)(F)F)c1,"inconclusive: 8.91 µM [fluorescent, side channel, partial curve]",
COCCNC(=O)C(c1ccc(C)o1)N(C(=O)c1snc(C(N)=O)c1N)c1cccc(C)c1 (configuration not stated),"inconclusive: 28.2 µM [quencher, side channel, single point]",
COc1ccc(/C=C/C(=O)OCC(=O)Nc2ccc(Cl)c(S(=O)(=O)N(C)C)c2)cc1OC,"inconclusive: 14.1 µM [quencher, side channel, partial curve]",

# Source: PubChem BioAssay AID2675 (National Center for Advancing Translational Sciences (NCATS), 2010)
